# Data from PubChem BioAssay AID1963576 (National Center for Advancing Translational Sciences (NCATS), 2024).
# In all, about 46,000 compounds went through this assay and about 60 (0.1%) were called active. This list was built around the results that the source calls inconclusive (neither active nor inactive); the mix of calls is not that of the screen. Calls come from the whole dose curve; as a rule, active = well fitted inhibition curve with a large enough effect; inconclusive = small, poorly fitted or top-dose-only effect; inactive = no such curve, though single readings can be large or run the other way. Potencies of inconclusive entries are left out as doubtful fits.
# Test: Primary qHTS assay for Inhibitors of ovarian cancer metastasis using an organotypic tumor microenvironment (TME) model.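 For Potency: count of GFP cancer cells still attached after washing and fixation.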 Note: nearly all actives have a fitted effect of over 65% in size.
# Settings: SKOV3ip1-GFP adhesion/invasion on 3D omental model, fluorescence; series mostly up to 45.8 µM
# Method in brief: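 A 3D layer of primary human omental fibroblasts, mesothelial cells, fibronectin and collagen I, grown 48 hr, received SKOV3ip1-GFP cells in serum-free medium plus compounds at 0.36-46 umol/L. After 2 hr RT and 16 hr 37 C, fixed adherent GFP cells were counted; normalized to DMSO and tomatine.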
# Potency is the fitted concentration of half-maximal effect; tags give direction and shape of the fitted curve.
row,SMILES,Potency
1,COc1cc2c(=O)c(C(=O)c3ccc(C)c(C)c3)cn(Cc3ccccc3F)c2cc1OC,inactive
2,CCc1ccc(CNC(=O)c2c3c(nc4ccccc24)C(=O)N(C2CCCCC2)C3)cc1,inactive
3,CCOC(=O)c1c(NC(=O)c2nc(S(C)(=O)=O)ncc2Cl)sc(C(C)=O)c1C,"inconclusive [inhibitor, partial curve, poor fit]"
4,COc1cccc(CNC(=O)c2ccc(-n3c(C)cc4c3CCC(C)C4)cc2)c1 (centres undefined),"inconclusive [inhibitor, single point]"
5,CCOc1cc(C#N)c(NC(=O)Cn2nnc(-c3ccc(C)cc3)n2)cc1OCC,"inconclusive [inhibitor, single point]"
6,COc1ccc(-c2cc3c(C)nc(N)nc3n(C3CCC(OCCO)CC3)c2=O)cn1 (centres undefined),inactive
7,CC(C)c1nc2ccc(C(=O)Nc3ccccc3F)cc2o1,"inconclusive [inhibitor, full curve, poor fit]"
8,CCC(C)SSc1ncc[nH]1 (centres undefined),"inconclusive [inhibitor, single point]"
9,NC(=O)c1c(NC(=O)CS(=O)(=O)c2ccc(Cl)cc2)sc2c1CCCCC2,"inconclusive [inhibitor, single point]"
10,Cc1cccc(NC(=O)CSc2nc3ccc(NC(=O)c4ccccc4)cc3s2)c1,inactive
11,CCSc1nc2n(n1)C(c1ccc(Cl)cc1Cl)C(C(=O)Nc1ccccc1C)=C(C)N2 (centres undefined),"inconclusive [inhibitor, single point]"
12,CCN1C(=O)c2ccccc2Sc2ccc(NC(=O)N3CCN(c4cc(C)ccc4C)CC3)cc21,"inconclusive [inhibitor, single point]"
13,CSc1nc(Nc2ccc(F)cc2)cc(-c2ccccc2)n1,"inconclusive [inhibitor, single point]"
14,Nc1ncnc2c1c(-c1cnc3[nH]ccc3c1)nn2C1CCCC1,"inconclusive [inhibitor, single point]"
15,CCOC(=O)CSc1nnc2n(-c3ccccc3)c(=O)c3c4c(sc3n12)CC(C(C)(C)C)CC4 (centres undefined),"inconclusive [inhibitor, full curve, poor fit]"
16,Cc1ccc(-n2nc3c(N4CCC(C(=O)NCc5ccccc5Cl)CC4)nnc(C)c3c2C)cc1,"inconclusive [inhibitor, full curve, poor fit]"
17,COc1cc(C2c3c(-c4ccccc4O)n[nH]c3C(=O)N2Cc2ccco2)ccc1OCC(C)C (centres undefined),"inconclusive [inhibitor, single point]"
18,COc1cc(C(=O)NC(c2ccc(Cl)cc2)c2cc(Cl)c3cccnc3c2O)cc(OC)c1OC (centres undefined),"inconclusive [inhibitor, partial curve, poor fit]"
19,CSc1ccc(/C=C/c2nc3ccccc3n2S(=O)(=O)c2cccc(Cl)c2)cc1,"inconclusive [inhibitor, partial curve]"
20,Cc1ccc(C)n1-c1nnc(N2CCCC(C(=O)NCc3cccc(F)c3)C2)s1 (centres undefined),inactive
21,O=C1Nc2ccc(Cl)cc2C(C#CC2CC2)(C(F)(F)F)O1 (centres undefined),"inconclusive [inhibitor, partial curve, poor fit]"
22,C[C@@H](Cc1cc2c(c(C(N)=O)c1)N(CCCO)CC2)NCCOc1ccccc1OCC(F)(F)F,inactive

row,SMILES,Potency
1,COc1ccccc1CNC(=O)C1CCCN(c2nnc(-n3c(C)ccc3C)s2)C1 (centres undefined),inactive
2,CCn1c(SCCOc2ccccc2F)nc2ccccc21,"inconclusive [inhibitor, single point]"
3,CN(C)c1ccc(CNC(=O)c2cc3cc(S(=O)(=O)N4CCCCC4)ccc3n2C)cc1,"inconclusive [inhibitor, single point]"
4,CCCNC(=O)c1ccc(-n2c(-c3ccccc3)cc3c2CCCCC3)cc1,"inconclusive [inhibitor, single point]"
5,Cc1ccc(CNC(=O)C2CCN(S(=O)(=O)c3c(C)noc3/C=C/c3cccs3)CC2)cc1,"inconclusive [inhibitor, single point]"
6,O=C(Nc1ccc2nc(SCC(=O)N3CCc4ccccc43)sc2c1)c1ccc(F)cc1,"inconclusive [inhibitor, single point]"
7,CCOC(=O)N1CCC(NC(=O)c2cnn(-c3ccc(F)cc3F)c2C2CCN(C(=O)OC(C)(C)C)CC2)CC1,"inconclusive [inhibitor, single point]"
8,CNc1ccc(-c2nc(-c3ccco3)no2)cc1[N+](=O)[O-],inactive
9,Cc1oc2ccc(O)c(CN3CCCCC3)c2c1C(=O)Nc1cccc(C(F)(F)F)c1,"inconclusive [inhibitor, single point]"
10,COc1ccc(N(Cc2cccs2)C(=O)c2ccc(C(C)(C)C)cc2)cc1,"inconclusive [inhibitor, partial curve]"
11,COc1ccc2c(Sc3ccccc3)c(C(=O)NCCCN3CCCCC3)[nH]c2c1,"inconclusive [inhibitor, single point]"
12,COc1ccc(-n2nc3c(N4CCCC(C(=O)NCc5ccc(C)cc5)C4)nnc(C)c3c2C)cc1 (centres undefined),active: 12.6 µM
13,CC(C)Cn1cc(NC(=O)Nc2cccc(C(F)(F)F)c2)c2ccccc2c1=O,inactive
14,CCOC(=O)c1c(C)sc(-c2c(-c3ccc4c(c3)OCCO4)[nH]c3c2c(=O)n(C)c(=O)n3C)c1O,inactive
15,CCCCN1C(=O)c2[nH]nc(-c3ccccc3O)c2C1c1ccc(C(C)(C)C)cc1 (centres undefined),"inconclusive [inhibitor, single point]"
16,CCOC(=O)c1c(NC(=O)c2ccc(S(=O)(=O)N3CCC(C)CC3)cc2)sc2c1CCN(CC)C2,"inconclusive [inhibitor, single point]"
17,Cc1cccc(-n2cc(-c3ccccc3)c3c(NC4CCCC4)ncnc32)c1,"inconclusive [inhibitor, single point]"
18,COc1cc2[nH]c(=O)n(CCCC(=O)NCc3ccc(Cl)cc3)c(=O)c2cc1OC,inactive
19,NC(=O)C1CCN(C(=O)c2ccc(NC(=O)c3nsc4ccccc34)cc2)CC1,inactive
20,Clc1cccc(-c2ccc(CNCCSc3nnnn3-c3ccccc3)o2)c1,"inconclusive [inhibitor, single point]"
21,CCOC(=O)c1sc2ncn(CC(=O)Nc3ccc(OCC)cc3)c(=O)c2c1C,inactive
22,COc1cc(C(=O)NS(=O)(=O)c2ccccc2C)ccc1Cc1cn(C)c2ccc(NC(=O)OC3CCCC3)cc12,"inconclusive [inhibitor, single point]"

row,SMILES,Potency
1,COc1cc(NC(=O)c2cccc3c2C(=O)N(C2CCCCC2)C3)cc(OC)c1,inactive
2,Cc1ccc(CS(=O)(=O)c2ncc(Cl)c(C(=O)Nc3nc4ccc(C)cc4s3)n2)cc1,active: 25.1 µM
3,Cc1n[nH]c(C)c1S(=O)(=O)N(CC(=O)Nc1ccc(C(F)(F)F)cc1)c1ccc(C(C)C)cc1,"inconclusive [inhibitor, partial curve, poor fit]"
4,O=C(NCCc1csc2nc(-c3ccccc3F)nn12)c1ccccc1C(F)(F)F,inactive
5,Cc1ccc(NC(=O)/C(C#N)=C/c2cc(C)n(-c3ccc(Br)cc3)c2C)cc1C,"inconclusive [inhibitor, single point]"
6,NCC(=O)Nc1ccc(-n2nc(C(F)(F)F)cc2-c2ccc3c(ccc4ccccc43)c2)cc1,"inconclusive [inhibitor, single point]"
7,CC(=O)Nc1ccc(NS(=O)(=O)c2cc(Br)cc3c2N(C(=O)C2CC2)CC3)cc1,inactive
8,CC1CCc2nc3ncn(Cc4ccc(Cl)cc4)c(=O)c3cc2C1 (centres undefined),inactive
9,Cc1nn2c(C)c(C(=O)N3CCN(c4ccccc4F)CC3)cnc2c1-c1ccc(F)cc1,"inconclusive [inhibitor, single point]"
10,Cc1ccc(Cl)cc1N1CCN(C(=O)c2cc3ccc4cccnc4c3[nH]2)CC1,"inconclusive [inhibitor, single point]"
11,COc1ccc(-c2cn3cccnc3n2)cc1NC(=O)Nc1cc(C)ccc1C,"inconclusive [inhibitor, single point]"
12,CN(C)CCN(Cc1ccco1)C(=O)c1cc2c(s1)-c1ccccc1OC2,"inconclusive [inhibitor, single point]"
13,CCOC(=O)c1cc(-c2ccc(OC)c(S(=O)(=O)NCc3ccccc3Cl)c2)on1,"inconclusive [inhibitor, single point]"
14,Cc1cccc(NC(=O)CCn2cnc3ccccc3c2=O)c1,inactive
15,CCc1ccc2occ(CC(=O)Nc3c(C(=O)c4ccc(C)cc4)oc4ccccc34)c2c1,inactive
16,Cc1ccc(-c2ccc(=O)n(CC(=O)NCCc3ccccc3)n2)cc1,"inconclusive [inhibitor, full curve]"
17,CCc1ccc(-c2nn(CC(=O)NC3CCCCC3)c3c2cnc2ccc(F)cc23)cc1,"inconclusive [inhibitor, full curve]"
18,CC1CCc2c(cc(-c3ccccc3)n2-c2ccc(C(=O)NC(C)C)cc2)C1 (centres undefined),"inconclusive [inhibitor, full curve, poor fit]"
19,CCc1cccc(NC(=O)CN(c2ccc(C)c(C)c2)S(=O)(=O)c2ccsc2C(=O)OC)c1,inactive
20,Cc1cc(NC(=O)CCn2c(=O)c3cccn3c3cccnc32)ccc1Br,"inconclusive [inhibitor, partial curve, poor fit]"
